# Whole data set: some 33,000 sequences, median “E-score (-0.5 to 0.5)” near -0.043, cut for the highest 2% near 0.37. Some of the results follow.
# Target: T1, Upc2 (UniProt Q12151)
# T1 sequence: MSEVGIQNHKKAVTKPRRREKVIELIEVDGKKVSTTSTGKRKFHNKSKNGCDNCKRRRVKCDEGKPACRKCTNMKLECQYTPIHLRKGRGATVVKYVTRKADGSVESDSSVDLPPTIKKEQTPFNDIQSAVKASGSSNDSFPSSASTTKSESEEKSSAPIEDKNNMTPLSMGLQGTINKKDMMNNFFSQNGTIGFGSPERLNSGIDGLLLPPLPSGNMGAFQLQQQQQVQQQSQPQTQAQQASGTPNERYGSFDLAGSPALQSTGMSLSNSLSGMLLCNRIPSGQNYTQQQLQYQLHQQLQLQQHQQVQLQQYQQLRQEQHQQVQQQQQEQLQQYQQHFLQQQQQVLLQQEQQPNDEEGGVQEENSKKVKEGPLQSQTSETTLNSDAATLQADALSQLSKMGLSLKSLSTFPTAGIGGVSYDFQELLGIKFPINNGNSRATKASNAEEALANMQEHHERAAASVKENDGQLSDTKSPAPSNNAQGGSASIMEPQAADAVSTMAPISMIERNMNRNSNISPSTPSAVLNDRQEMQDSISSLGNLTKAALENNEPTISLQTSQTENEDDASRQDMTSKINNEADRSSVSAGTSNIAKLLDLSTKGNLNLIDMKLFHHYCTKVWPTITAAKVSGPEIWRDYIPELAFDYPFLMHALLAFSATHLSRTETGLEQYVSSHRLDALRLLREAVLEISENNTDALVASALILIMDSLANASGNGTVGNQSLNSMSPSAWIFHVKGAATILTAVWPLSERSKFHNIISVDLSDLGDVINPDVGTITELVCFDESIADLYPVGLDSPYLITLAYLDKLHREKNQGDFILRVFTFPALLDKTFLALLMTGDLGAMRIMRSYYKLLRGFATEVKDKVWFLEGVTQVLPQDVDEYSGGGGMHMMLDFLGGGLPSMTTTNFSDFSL
# Test: PBM E-score (8-mer binding enrichment) (E-score (-0.5 to 0.5)); higher = stronger / more preferred TF binding; most listed sequences are background and not binding sites
# Conditions: protein concentration: 200 nM; construct: GST-full length
# Procedure, shortened: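 PURExpress in vitro transcription/translation supplied GST-tagged yeast transcription factors, either full-length or DNA-binding domain. Applied at about 100-200 nM to universal all-10-mer Agilent arrays double-stranded by primer extension, the bound protein was detected with fluorescent anti-GST. E-scores, modified Wilcoxon-Mann-Whitney statistics, were given by the Universal PBM Analysis Suite to ungapped eight-base words pooled with their reverse complements after masliner normalisation.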
row,Sequence,PBM E-score
1,GTGCACAA,0.07
2,ATTGTCTG,0.0222
3,ATGGTCGG,0.0956
4,AGTACCGC,0.1
5,CAGAAAGC,0.00144
6,AAGTCCGT,0.0895
7,GGTTTAAA,0.0625
8,ACGTCGAA,0.245
9,CAATTCCA,-0.17
10,CGTTATGC,0.0408
11,CTTACTGA,0.0118
12,ATCTACAC,0.0161
13,CCCGATAG,-0.0572
14,ACTTTGTA,-0.0703
15,CGGCCTAC,-0.162
16,GAAGTAGA,0.081
17,ACAAGCAT,-0.216
18,ATGCTGAC,-0.0796
19,CGATGCTC,-0.00541
20,TCACTGCA,-0.074
21,TAAACGGA,0.454
22,AGCCACAG,-0.208

row,Sequence,PBM E-score
1,CCCCTACC,-0.0757
2,ACAAAAAG,0.152
3,ACTTTTAT,-0.158
4,AATAAGAT,0.0502
5,TGGGTACA,-0.0942
6,TAGCGTGA,0.0193
7,ATCATTTG,-0.11
8,GGGTAATA,-0.0141
9,CGATACGA,0.464
10,CAGCAAAC,0.132
11,CCCTACTA,-0.242
12,GATATGTA,-0.0962
13,CATTGAAG,-0.151
14,TTAGCGAA,0.29
15,CGGCTCGC,0.181
16,ATGCCCGC,0.0745
17,CACATGAG,-0.288
18,CAACTACC,-0.158
19,CGAGCGCA,0.223
20,TAGACGCA,0.00606
21,ACTTAAAC,0.319
22,GCCAGCAC,-0.284

row,Sequence,PBM E-score
1,TCCGGAAA,-0.03
2,CGCACCCG,0.141
3,TCGACGAA,-0.018
4,GTTAGGAA,-0.00483
5,AGGGCAAA,-0.0746
6,GCGCAAAC,0.192
7,GCTGCAAC,-0.107
8,ATGTGTTC,-0.129
9,AGCGAGGA,0.144
10,CATGAAAG,0.014
11,CATACGGA,0.365
12,CCGGGCGC,-0.144
13,ACAATTTG,-0.00417
14,AAACTGTA,0.192
15,GGTGGGGA,-0.0568
16,AGTGTAAT,-0.109
17,CACTAAAC,0.213
18,AAACGGCG,0.401
19,CCGGGCGA,-0.135
20,AAACCGAG,0.214
21,ATGACACG,-0.0577
22,AGCGTCGC,0.262

row,Sequence,PBM E-score
1,AGGACGGA,-0.134
2,GCATAATA,0.198
3,AAGCAGGG,-0.096
4,ACTACAGC,-0.157
5,CTGTCCAC,-0.19
6,AAATATAA,-0.00275
7,CCACGAGG,-0.0572
8,TGTTGGAA,-0.0759
9,CATGCCCC,-0.163
10,AACACGCA,-0.124
11,CGTCTCCC,-0.17
12,AGACTTGA,-0.0254
13,GCATGCGC,-0.0143
14,AGTACAAT,0.0921
15,CCGAAATC,-0.0366
16,CGTCTTAC,0.2
17,CCCTTACG,0.224
18,TGTGCAAA,0.155
19,CATATCTA,9e-05
20,AGCGGGTA,0.0449
